Measurements from article PMC4336329 (PLoS ONE, 2015).
In all, about 310,000 compounds went through this assay and about 2,200 (0.71%) showed an effect of 50% or more. Effects have a minus sign here. The list shows a part of the results.

target: human ether-à-go-go-related gene (hERG) potassium channel (human, UniProt Q12809); experiment: primary screen, population patch clamp on CHO cells stably expressing hERG
Sequence (Q12809 whole entry, looked up): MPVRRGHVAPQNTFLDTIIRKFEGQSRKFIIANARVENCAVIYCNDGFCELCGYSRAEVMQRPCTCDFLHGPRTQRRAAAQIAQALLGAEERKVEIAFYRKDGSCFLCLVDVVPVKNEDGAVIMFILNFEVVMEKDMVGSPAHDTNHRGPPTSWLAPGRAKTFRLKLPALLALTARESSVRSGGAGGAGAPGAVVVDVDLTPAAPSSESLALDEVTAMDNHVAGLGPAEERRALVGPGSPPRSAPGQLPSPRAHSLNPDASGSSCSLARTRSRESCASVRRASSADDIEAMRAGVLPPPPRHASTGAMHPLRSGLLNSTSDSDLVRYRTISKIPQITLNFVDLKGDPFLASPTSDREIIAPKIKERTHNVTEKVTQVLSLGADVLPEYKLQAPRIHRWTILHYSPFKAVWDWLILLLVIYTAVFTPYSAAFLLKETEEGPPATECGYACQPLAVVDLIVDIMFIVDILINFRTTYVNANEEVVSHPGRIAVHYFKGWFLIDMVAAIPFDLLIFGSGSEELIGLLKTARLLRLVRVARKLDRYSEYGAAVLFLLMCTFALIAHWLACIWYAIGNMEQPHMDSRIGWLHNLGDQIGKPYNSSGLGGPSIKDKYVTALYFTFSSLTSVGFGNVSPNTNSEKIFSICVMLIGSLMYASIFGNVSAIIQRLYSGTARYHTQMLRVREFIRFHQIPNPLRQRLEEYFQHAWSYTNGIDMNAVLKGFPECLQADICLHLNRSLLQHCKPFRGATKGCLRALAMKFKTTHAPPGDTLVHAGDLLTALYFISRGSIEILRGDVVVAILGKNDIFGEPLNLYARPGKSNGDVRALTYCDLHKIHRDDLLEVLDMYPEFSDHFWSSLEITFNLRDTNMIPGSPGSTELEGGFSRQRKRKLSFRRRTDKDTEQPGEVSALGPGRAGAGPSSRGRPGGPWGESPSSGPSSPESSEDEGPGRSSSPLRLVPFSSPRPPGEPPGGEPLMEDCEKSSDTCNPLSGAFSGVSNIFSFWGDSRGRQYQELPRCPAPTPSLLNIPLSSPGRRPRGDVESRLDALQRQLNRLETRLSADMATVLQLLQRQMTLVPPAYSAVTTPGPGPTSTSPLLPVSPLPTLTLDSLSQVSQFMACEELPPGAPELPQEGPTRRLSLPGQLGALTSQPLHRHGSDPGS

Structure (SMILES)	hERG current change (%, negative = inhibition) at 1uM
COc1ccc2oc(C(=O)OCC(=O)NCC3CCCO3)c(C)c2c1 (centres unmarked)	14.9%
Cc1cc(N)n(-c2ccc(S(N)(=O)=O)cc2[N+](=O)[O-])n1.O=C(O)C(F)(F)F	22.6%
CC(C)Cc1nc(N2CCN(C(=O)c3ccco3)CC2)c(C#N)c2c1CCC2	4.55%
COc1ccc(C(=O)Nc2ccc([N+](=O)[O-])cn2)cc1OC	5.65%
COc1ccc(/C(O)=C2\C(=O)C(=O)N(c3cc(C)on3)C2c2cccc(OC)c2OC)cc1C (centres unmarked)	5.09%
COC(=O)c1ccc(OCC(O)CN2CCN(CC(O)COc3ccc(C(=O)OC)cc3)CC2)cc1 (centres unmarked)	-25.6%
CCN(CC)S(=O)(=O)c1ccc2c(c1)c(=O)c(C(=O)N1CCN(c3ccccn3)CC1)cn2C	1.05%
COc1ccc(CNC(=O)COc2cc3c(c4oc(=O)cc(C)c24)CCC(C)(C)O3)cc1OC	11.5%
CCc1nc(C(N)=O)c2[nH]c(=O)n(-c3ccccc3F)c2n1	22.7%
Cc1ccc(C(=O)O/N=C(\N)c2cccc([N+](=O)[O-])c2)cc1	5.21%
Cc1ccc(S(=O)(=O)N(CC(=O)N2CCOCC2)c2ccc(C(C)C)cc2)cc1	8.37%
COc1ccc(COC(=O)C2CC(=O)N(Cc3ccc(C)cc3)C2)cc1 (centres unmarked)	-12.4%
CCc1ccccc1N(C(C)=O)c1nc(CCl)cs1	10.3%
O=C(CSc1nnc(NC(=O)c2ccccc2)s1)NC1CCCC1	2.14%
CCCCN(C(=O)c1[nH]c(C)c(C(C)=O)c1C)c1c(N)n(CCCC)c(=O)[nH]c1=O	2.19%
CCC(=O)c1c[nH]c(C(=O)NCc2cccs2)c1	6.89%
CCc1ccc(-c2nc(SCC(=O)N(C)C3CCS(=O)(=O)C3)n[nH]2)cc1 (centres unmarked)	5.78%
CN1CCN(c2ccc(Cl)cc2NC(=O)/C=C/c2ccc(F)cc2)CC1	-25.7%
COc1cccc(-c2nnc(SCc3nc4ccccc4s3)n2C)c1	-3.5%

Structure (SMILES)	hERG current change (%, negative = inhibition) at 1uM
O=[N+]([O-])c1ccc2nc(-c3ccc(Cl)cc3)n(OCc3ccccc3)c2c1	19.2%
Cn1cccc1C(=O)NC1CCCCCC1	5.97%
CC(C)(C)Sc1ccc2nc3c(n2c1)CCCC3.Cl	-0.262%
CCCC(=O)c1cc(CP(=O)(OCC)OCC)oc1C	9.57%
O=C(c1ccco1)N1N=C(c2cccs2)CC1c1ccco1 (centres unmarked)	-2.18%
CCC(=O)Nc1cccc(Br)c1	5.58%
Brc1csc(/C=N/Nc2nc3ccccc3s2)c1	9.85%
Cc1ccc(/C(N)=N/OC(=O)CCC2CCCC2)cc1	8.87%
COc1ccccc1NC(=O)c1ccc(S(=O)(=O)N2CCOCC2)cc1	8.61%
O=[N+]([O-])c1ccc(N2CCN(Cc3ccccc3)CC2)s1	-6.32%
Cc1ccc(O)c(NC(=S)NC(=O)c2ccccc2Cl)c1	12.3%
Cc1cc(C)c(S(=O)(=O)N2CCCOC2CNC(=O)C(=O)NCc2cccs2)c(C)c1 (centres unmarked)	16.1%
COC/C=C/C1=CC2=CC(=O)C(C)(OC(=O)c3cnc4ccccc4n3)C(=O)C2=CN1c1ccccc1 (centres unmarked)	9.18%
Br.CCn1c2c(c(=N)c3c1CCC3)CCCC2	4.22%
O=C(Nc1ccc(S(=O)(=O)Nc2cnc3ccccc3n2)cc1)c1ccc(Cl)cc1Cl	6.22%
COc1ccc(NC(=O)CSc2c3c(nc4cc(Cl)ccc24)CCCC3)cc1OC	11.5%
O=C(/C=C/c1ccccc1)NC(=S)N1C[C@H]2C[C@H](C1)c1cccc(=O)n1C2	-4.92%
O=C(COc1cccc2cccnc12)NNC(=O)Nc1ccccc1	7.1%
NC(=O)[C@@H]1CCCN1C(=O)c1ccc2oc(CCc3ccccc3)nc2c1	7.92%

Structure (SMILES)	hERG current change (%, negative = inhibition) at 1uM
Cc1c(C(=O)N2CCCC2)c(S(=O)(=O)NCCc2ccccc2)c(C)n1C	8.05%
CCC(=O)N1CCc2cc(S(=O)(=O)CCC(=O)O)ccc21	11.4%
Cc1ccc(NC(=O)N2CCC(NC(=O)c3ccco3)CC2)cc1	14.3%
Cc1cc[n+]2n1CC(O)C2.[Cl-] (centres unmarked)	8.46%
Cc1cc(C)c2oc(C(=O)N3CCN(Cc4ccccc4)CC3)cc(=O)c2c1	4.72%
COc1ccccc1N(C)S(=O)(=O)c1ccc(C(=O)Nc2nc(C)cs2)cc1	7.75%
CC(OC(=O)CSc1ccc([N+](=O)[O-])cc1)C(=O)NC1CC1 (centres unmarked)	2.97%
O=C(Nc1ccc2ccccc2c1)c1ccc(Br)o1	12.9%
COC(=O)c1ccccc1NC(=S)NC(NC(=O)COc1ccccc1)C(Cl)(Cl)Cl (centres unmarked)	8.45%
Cc1ccc(NC(=O)Nc2nnc(-c3ccccc3F)s2)cc1	13.3%
COc1ccc2c(C(=O)c3ccc(Cl)cc3)n(CCCC(N)=O)[n+]([O-])c2c1	-6.19%
CC(=O)Nc1sc(C)c(C)c1C(=O)OCC(=O)Nc1cc(S(=O)(=O)N2CCCCC2)ccc1Cl	6.72%
CCN(CC)C(=O)COc1ccc2c(c1)C(=O)CC(C)(C)O2	16.4%
Cc1nc(Nc2ccccc2)c2oc3ccc(Cl)cc3c2n1	7.43%
COc1ccc(N2CCN(C(=O)c3ccc(S(=O)(=O)N4CCOCC4)cc3)CC2)cc1	0.972%
Cc1cccc(CCNC(=O)c2cc(=O)[nH]c3ccc(Br)cc23)c1	1.53%
CCOC(=O)C1CCCN(C(=O)COC(=O)c2cc(=O)c3ccccc3o2)C1 (centres unmarked)	14.7%
COc1cccc(C(C(=O)NCC2CCCO2)N(C(=O)Cn2nnc3ccccc32)c2ccc(NC(C)=O)cc2)c1OC (centres unmarked)	14.2%
